# The inconclusive results got no clear call from the source; some entries with a clear call stand among them for comparison. For part of these data: A potency beside an inconclusive call is a rough fit, not a confirmed value. Calls of active or inactive are those of the source. Unless noted, calls come from the whole dose curve; as a rule, active = well fitted curve in the direction sought with a large enough effect; inconclusive = small, poorly fitted or top-dose-only effect, or another doubt; inactive = no such curve, though single readings can be large; an effect the other way counts as inactive or inconclusive.
# Assays:
# [1] = qHTS of pediatric cancer cell lines to identify multiple opportunities for drug repurposing: Primary screen for DAOY cells (AID 1347090); settings: DAOY medulloblastoma viability, CellTiter-Glo luminescence, 48 h; activity change, negative = cytotoxic: at 46 µM (top of the series); note: nearly all actives have a fitted effect of over 55% in size
# Outline: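 Eight- or eleven-point concentration series, 48 h treatment at 37 degrees C in growth media; readout CellTiter-Glo luminescence. Potency and efficacy were taken from the concentration-response curves.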
# [2] = qHTS of pediatric cancer cell lines to identify multiple opportunities for drug repurposing: Primary screen for BT-37 cells (AID 1347094)
# Outline: (§1)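 500-1,000 cells/well; 5 h pre-incubation 37 °C/5% CO2; compound pinned; 48 h; CellTiter-Glo, 15 min RT; luminescence. MIPE 11-pt from 0.78 nM, NPC 8-pt from 0.59 nM final. Bortezomib 2.3 µM final as positive control.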
# [3] = qHTS of pediatric cancer cell lines to identify multiple opportunities for drug repurposing: Primary screen for NB1643 cells (AID 1347099); note: nearly all actives have a fitted effect of over 50% in size
# Outline: as §1
# [4] = qHTS of pediatric cancer cell lines to identify multiple opportunities for drug repurposing: Primary screen for Rh18 cells (AID 1347102); note: nearly all actives have a fitted effect of over 65% in size
# Outline: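 Cells (500-1,000/well) in growth media were settled 5 h at 37 degrees C, then given compounds for 48 h. Viability was read as CellTiter-Glo luminescence. Primary runs used MIPE at 11 points (0.78 nM-46 µM) and NPC at 8 points (0.59 nM-46 µM); follow-ups used 11 points.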
# [5] = qHTS of pediatric cancer cell lines to identify multiple opportunities for drug repurposing: Primary screen for RD cells (AID 1347104); settings: RD rhabdomyosarcoma viability, CellTiter-Glo luminescence, 48 h; activity change, negative = cytotoxic: at 46 µM (top of the series); note: nearly all actives have a fitted effect of over 55% in size
# Outline: as §1
# [6] = qHTS of pediatric cancer cell lines to identify multiple opportunities for drug repurposing: Primary screen for Rh41 cells (AID 1347108); note: nearly all actives have a fitted effect of over 70% in size
# Outline: as §1
# [7] = Quantitative High-Throughput drug screen in 47 multiple myeloma cell lines against the NCATS MIPE library collection: Karpas417_ECACC cell viability assay (AID 1918961); settings: Karpas417 myeloma viability, CellTiter-Glo ATP luminescence, 48 h; viability (% of DMSO): at 45.8 µM (top of the series)
# Outline: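 Approved and investigational drugs from MIPE 4.0 were added by pin tool to 500 cells per well. After 48 hours at 37C, ATP-based CellTiter-Glo luminescence indicated remaining viability.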
# [8] = Quantitative High-Throughput drug screen in 47 multiple myeloma cell lines against the NCATS MIPE library collection: JIM1_ECACC cell viability assay (AID 1918964)
# Outline: (§2)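 CellTiter-Glo luminescence (ATP) after 48 h compound exposure, 37C/5% CO2; 500 cells/well; MIPE 4.0 approved/investigational drugs pinned in; DMSO = 100%, media only = 0% viability.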
# [9] = Quantitative High-Throughput drug screen in 47 multiple myeloma cell lines against the NCATS MIPE library collection: KMS21BM_JCRB cell viability assay (AID 1918974); settings: ATP luminescence, 48 h; viability: at 45.8 µM (top of the series)
# Outline: as §2
# [10] = Quantitative High-Throughput drug screen in 47 multiple myeloma cell lines against the NCATS MIPE library collection: LP1_DSMZ cell viability assay (AID 1918982); note: nearly all actives have a fitted effect of over 35% in size
# Outline: (§3)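 MIPE 4.0 approved/investigational drugs; 500 cells/well; 48 h 37 °C humidified 5% CO2; CTG luminescence readout; DMSO = 100%, media = 0% viability.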
# [11] = Quantitative High-Throughput drug screen in 47 multiple myeloma cell lines against the NCATS MIPE library collection: L363_DSMZ cell viability assay (AID 1918984); settings: L363 myeloma viability, CellTiter-Glo ATP luminescence, 48 h; viability (% of control): at 45.8 µM (top of the series); note: nearly all actives have a fitted effect of over 40% in size
# Outline: as §3
# [12] = qHTS for identification of novel therapeutic agents for treatment of microphthalmiaassociated transcription factor (MiT) renal cell carcinoma (RCC) (AID 1963991; calls by dose curve); settings: TFE3-RCC UOK109 viability, CellTiter-Glo, 48 h; active = Z-AUC below -0.8 in all three lines
# Outline: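 Viability of three TFE3-fusion renal carcinoma lines measured by CellTiter-Glo after 48 h treatment with each of 1912 compounds at 11 concentrations. Responses scaled between DMSO (100%) and empty wells (0%) before curve fitting.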
# [13] = tested on: UISO; assay: qHTS assay to identify novel small-molecules to repurpose for Merkel cell carcinoma treatment (AID 1296009); settings: MCC and control cell lines, CellTiter-Glo viability, 72 h; activity change, negative = cytotoxicity: at 46 µM (top of the series); note: nearly all actives have a fitted effect of over 60% in size
# Outline: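 qHTS format: cells treated with library compounds in DMSO across 8 (NPC) or 11 (MIPE) concentrations. Readout after 72 hr at 37 degree celsius was CellTiter-Glo luminescence.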
# [14] = molecular target: Cytochrome P450 2D6 (Homo sapiens) (UniProt P10635); assay: Cytochrome P450 family 2 subfamily D member 6 (CYP2D6) small molecule antagonists: luciferase biochemical (cell-free) qHTS assay (AID 1645840; active = well fitted curve in the direction sought with a large enough effect in the repeat runs; inconclusive = weak or mixed curves; inactive = no such curve, though single readings can be large; an effect the other way counts as inactive or inconclusive; note: nearly all actives have a fitted effect of over 55% in size)
# Outline: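 P450-Glo luminescent screen: recombinant CYP2D6 enzyme–proluciferin substrate mix preincubated with compound 10 min at room temperature, then NADPH regeneration added for 1 h at room temperature. Detection reagent added for 20 min; luciferin light read as relative luminescence units.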
# [15] = Primary fluorescence-based thiol-reactive (MSTI) qHTS assay for identification of artifact compounds. (AID 1845221);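 note: thiol-reactive compounds lower the probe fluorescence signal; nearly all actives have a fitted effect of over 65% in size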
# Outline: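 Reactivity toward the thiol probe MSTI (4 uM) is scored by fluorescence at Ex/Em 525/598 nm after 1 h at room temperature. Acetyl-MSTI and MSTI define the activity scale.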
# [16] = tested on: Zika virus NS2B-NS3 protease (linked construct); assay: Primary screen NINDS Rhodamine qHTS for Zika virus inhibitors (AID 1347160); settings: activity change, negative = inhibition: at 57.1 µM (top of the series) unless noted; note: nearly all actives have a fitted effect of over 55% in size; for activity change, negative = inhibition: % is set by controls: 0 for no effect and ±100 for the full control effect
# Outline: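 Percent inhibition, normalized to uninhibited and enzyme-free controls, is fitted to a 4-parameter Hill equation. Fluorescence change comes from a 15-min cleavage of 1.5 microM bis-peptide Rhodamine110 substrate by 25 nM linked NS2B-NS3 at room temperature.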
# [17] = qHTS of pediatric cancer cell lines to identify multiple opportunities for drug repurposing: Primary screen for BT-12 cells (AID 1347101); note: nearly all actives have a fitted effect of over 25% in size
# Outline: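 Cells (500-1,000/well) rested 5 h, then received compounds for 48 h; metabolically active cells were measured by CellTiter-Glo luminescence. Final concentrations spanned up to 46 µM (MIPE, 11-point) or 0.59 nM-46 µM (NPC, 8-point) in primary screens, 11-point in follow-ups.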
# [18] = qHTS to identify inhibitors of the type 1 interferon - major histocompatibility complex class I in skeletal muscle: primary screen against the NCATS Mechanism Interrogation Plate v5.0 (MIPE) Libary (AID 1347411); settings: iHSKM cells + IFN-b, HiBiT-tagged MHC-I luminescence, 24 h; activity change, negative = inhibition: at 45.8 µM (top of the series); note: nearly all actives have a fitted effect of over 65% in size
# Outline: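 Luminescence from HiBiT-tagged endogenous HLA-B*08:01 served as the MHC class I read-out. CRISPR-engineered C25cl48 human myoblasts received 4.0 ng/ml IFN-beta plus compound for 24 hrs, with an 11-point, 1:3 series topping at 46 uM final.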
# [19] = Primary redox qHTS assay for identification of artifact compounds. (AID 1845223); settings: Amplex Red/HRP redox cycling with DTT, fluorescence; redox activity (% of DA3003): at 53.8 µM (top of the series)
# Outline: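 Amplex Red (25 uM) and HRP (250 mU/mL) in HBSS, with compounds for 15 min, then 250 uM DTT for 30 min, room temperature, dark. Fluorescence 525/598 nm read; normalized to DMSO and 10 uM DA3003; Hill fit.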
# [20] = qHTS assay to identify inhibitors of the type 1 interferon - major histocompatibility complex class I in skeletal muscle: Counter screen cell viability and HiBit confirmation (AID 1347412); settings: iHSKM muscle cells + IFN-b, HiBiT or CellTiter-Glo, 24 h; note: nearly all actives have a fitted effect of over 60% in size; for activity change, negative = inhibition: % is set by controls: 0 for no effect and ±100 for the full control effect
# Outline: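 HLA-B*08:01–HiBiT knock-in immortalized human myoblasts (C25cl48) stimulated with 4.0 ng/ml human IFN-beta and dosed with compound in a 12-point 1:3 titration (top final 46 uM). After 24 hrs at 37 C, HiBiT lytic luminescence or CellTiter Glo ATP read out.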
# Potency is the fitted concentration of half-maximal effect; tags give direction and shape of the fitted curve.
# Sequence of UniProt P10635 (P10635 whole entry, looked up): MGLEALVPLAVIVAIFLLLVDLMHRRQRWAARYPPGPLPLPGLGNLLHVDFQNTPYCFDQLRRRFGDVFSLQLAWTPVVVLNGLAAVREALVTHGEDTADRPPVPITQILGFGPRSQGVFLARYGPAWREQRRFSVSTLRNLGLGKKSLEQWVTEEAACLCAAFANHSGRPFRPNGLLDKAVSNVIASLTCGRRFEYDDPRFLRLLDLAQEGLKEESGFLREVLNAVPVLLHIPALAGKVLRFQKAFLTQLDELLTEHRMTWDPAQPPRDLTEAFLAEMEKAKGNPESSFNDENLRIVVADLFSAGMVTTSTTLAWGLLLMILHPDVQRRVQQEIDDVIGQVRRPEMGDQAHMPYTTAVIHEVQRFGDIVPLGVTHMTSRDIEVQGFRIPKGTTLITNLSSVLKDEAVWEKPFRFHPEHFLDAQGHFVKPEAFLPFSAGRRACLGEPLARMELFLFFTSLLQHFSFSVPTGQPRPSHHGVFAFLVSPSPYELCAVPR
smiles,measurement,setting,value
CC(=O)[C@H]1CC[C@H]2[C@@H]3CCC4=CC(=O)CC[C@]4(C)[C@H]3CC[C@]12C,Potency,[1],"inconclusive: 37.2 µM [cytotoxic, single point]"
same,Potency,[2],"inconclusive: 27.3 µM [cytotoxic, single point]"
same,Potency,[3],active: 2.96 µM
same,Potency,[4],"inconclusive: 33.2 µM [cytotoxic, single point]"
same,Potency,[5],"inconclusive: 5.26 µM [cytotoxic, partial curve]"
same,Potency,[6],"inconclusive: 9.35 µM [cytotoxic, full curve]"
same,Potency,[7],"inconclusive: 3.32 µM [rising, full curve, poor fit]"
same,Potency,[8],"inconclusive: 0.0235 µM [rising, full curve, poor fit]"
same,Potency,[9],"inconclusive: 0.0209 µM [rising, full curve]"
same,Potency,[10],"inconclusive: 20.9 µM [cytotoxic, single point]"
same,Potency,[11],"inconclusive: 0.0066 µM [rising, full curve, poor fit]"
same,Potency,[12],"inconclusive: 37.2 µM [falling, partial curve, poor fit]"
same,Potency,[13],"inconclusive: 26.4 µM [inhibitor, single point]"
CCCCNc1ncc(-c2ccc(CN3CCOCC3)cn2)c(NC2CCC(O)CC2)n1 (stereo not drawn),Potency,[14],"inconclusive: 4.25 µM [inhibitor, partial curve, poor fit]"
CCC(C(C)O)n1ncn(-c2ccc(N3CCN(c4ccc(OCC5COC(Cn6cncn6)(c6ccc(F)cc6F)C5)cc4)CC3)cc2)c1=O (stereo not drawn),Potency,[15],"inconclusive: 10.6 µM [inhibitor, partial curve, poor fit]"
COc1cc(C2c3cc4c(c(O)c3CC(CO)C2C(=O)O)OCO4)cc(OC)c1O (stereo not drawn),Potency,[16],"inconclusive: 8.91 µM [inhibitor, partial curve]"
O=C(Nc1ccc(S(=O)(=O)C(F)(F)F)cc1)C1=CCN(c2ncccc2C(F)(F)F)CC1,Potency,[16],"inconclusive: 0.891 µM [inhibitor, single point]"
same,Potency,[14],active: 7.56 µM
CCCC(Nc1nc(-c2ccc(NC(=O)NCC)c(OC)c2)ncc1C)c1cccnc1 (stereo not drawn),Potency,[15],inactive
CC(=O)Nc1nc2c(Oc3cc(-c4ccc(C(F)(F)F)cc4)ncn3)cccc2s1,Potency,[16],"inconclusive: 0.0891 µM [inhibitor, full curve, poor fit]"
same,Potency,[14],"inconclusive: 13.5 µM [inhibitor, partial curve]"
COc1cc(CCc2cc(NC(=O)c3ccc(N4C[C@@H](C)N[C@@H](C)C4)cc3)n[nH]2)cc(OC)c1,Potency,[1],"inconclusive: 37.2 µM [cytotoxic, single point]"
same,Potency,[3],"inconclusive: 16.6 µM [cytotoxic, partial curve, poor fit]"
same,Potency,[17],active: 27.3 µM
same,Potency,[4],active: 5.9 µM
same,Potency,[5],active: 16.6 µM
same,Potency,[18],"inconclusive: 18.6 µM [inhibitor, partial curve, poor fit]"
same,Potency,[19],inactive
same,Potency,[7],active: 2.35 µM
same,Potency,[9],"inconclusive: 18.7 µM [cytotoxic, partial curve, poor fit]"
same,Potency,[10],"inconclusive: 16.6 µM [cytotoxic, partial curve, poor fit]"
same,Potency,[11],"inconclusive: 26.4 µM [cytotoxic, partial curve, poor fit]"
same,Potency,[12],"inconclusive: 14.8 µM [falling, partial curve]"
same,"activity change, negative = inhibition","[20]; HiBiT, at 45.9 µM (top of the series)",inactive: -16%
same,Potency,[20]; Viability,"inconclusive: 15.7 µM [cytotoxic, partial curve]"
CC(C)S(=O)(=O)Nc1ccc(F)c(C(=O)c2c[nH]c3ncc(-c4cccnc4)cc23)c1F,Potency,[19],inactive
COc1cccc(NC[C@@H](O)Cn2c3ccc(Br)cc3c3cc(Br)ccc32)c1,Potency,[16],"inconclusive: 39.8 µM [inhibitor, single point]"
O=C(c1cccc(Cl)c1F)N1CCN(Cc2cccc(Nc3nccs3)n2)CC1,Potency,[14],active: 1.69 µM
same,Potency,[19],"inconclusive: 15 µM [activator, partial curve, poor fit]"
Cc1ccc(NC(=O)Nc2cc(C(F)(F)F)ccc2F)cc1Nc1ccc2c(c1)NC(=O)/C2=C\c1ccc[nH]1,Potency,[16],"inconclusive: 25.1 µM [inhibitor, single point]"
CCn1c2ccccc2c2cc(Nc3ccnc(NCCCN4CCOCC4)n3)ccc21,Potency,[15],"inconclusive: 3.77 µM [inhibitor, full curve, poor fit]"
c1ccc(-c2cnn3cc(-c4ccc(OCCN5CCOCC5)cc4)cnc23)cc1,Potency,[14],"inconclusive: 13.5 µM [inhibitor, partial curve]"
same,Potency,[15],inactive
same,Potency,[19],"inconclusive: 3.77 µM [activator, partial curve, poor fit]"
CNc1nc(-c2ccc3c(N)n[nH]c3c2)cc(N2CC(C(=O)NC3CCCCC3)CCC2C)n1 (stereo not drawn),Potency,[15],"inconclusive: 4.74 µM [inhibitor, full curve]"
Cc1cc(N2CCN(C(=O)Oc3ccc(-c4ccccc4)cn3)CC2)c2ccccc2n1,Potency,[16],inactive
C=C1[C@@H](C2=CC(=O)OC2)CC[C@@]2(O)[C@@H]1CC1[C@H]2CC[C@@H]2C[C@@H](O[C@H]3O[C@@H](C)[C@@H](O[C@@H]4O[C@H](CO[C@@H]5O[C@H](CO)[C@@H](O)[C@H](O)[C@H]5O)[C@@H](O)[C@H](O)[C@H]4O)[C@H](OC)[C@H]3O)CC[C@]12C (stereo partly drawn),Potency,[15],"inconclusive: 8.98 µM [inhibitor, partial curve, poor fit]"
same,Potency,[19],"inconclusive: 8.98 µM [activator, partial curve, poor fit]"
